# According to the supplement of paper PMC9135407:
# “And” between values parts separate entries of the source, which are not always exact repeats. Equal entries are not always repeated. Structures can show the parent of a compound that is named as a salt. Screen size: about 5,800 compounds; about 620 (11%) showed activity.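 How the source made its calls: active = score above a cut-off or among the top three wells of a plate; in these data no inactive exceeds 0.85.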 The entries are a selection whose mix differs from that of the whole data set.
# Tested on: primary human hepatic stellate cells (donor 1)
# Assay: scaled lipid accumulation score (0 = DMSO-like, 1 = nortriptyline-like); higher = stronger HSC inactivation (lipid re-accumulation), active = hit call of the paper
# Settings: 48 h
# [1] = library stock concentration: 3.33 mM
# [2] = library stock concentration: 10 mM
# [3] = library stock concentration: 80 uM
# [4] = library stock concentration: 400 uM
# [5] = library stock concentration: 1 mM
# [6] = library stock concentration: 4.7 mM
# [7] = library stock concentration: 2 mM
smiles,measurement,setting,value
CCOC(=O)C1=C(C)NC(C)=C(C(=O)OC)C1c1cccc(Cl)c1Cl (stereo not drawn) [Felodipine],scaled lipid accumulation score,,inactive: 0.05
same,scaled lipid accumulation score,[1],inactive: ≤ 0
same,scaled lipid accumulation score,library stock concentration: 5.2 mM,inactive: 0.028
same,scaled lipid accumulation score,[2],inactive: ≤ 0
CN1CCN(Cc2ccc(-c3cnc4[nH]cc(-c5ccc6[nH]ccc6c5)c4c3)cc2)CC1,scaled lipid accumulation score,[3],inactive: ≤ -0.001
same,scaled lipid accumulation score,[4],inactive: 0.001
same,scaled lipid accumulation score,[2],inactive: 0.422
CO[C@H]1C[C@H](O[C@@H]2/C(C)=C/C[C@@H]3C[C@@H](C[C@]4(CC[C@H](C)[C@@H](C5CCCCC5)O4)O3)OC(=O)[C@@H]3C=C(C)/C(=N/O)[C@H]4OC/C(=C\C=C\[C@@H]2C)[C@]43O)O[C@@H](C)[C@@H]1O [Selamectin],scaled lipid accumulation score,library stock concentration: 2.6 mM,inactive: ≤ 0
same,scaled lipid accumulation score,[2],inactive: ≤ -0.027
Cc1nc2sccn2c(=O)c1CCN1CCC(=C(c2ccc(F)cc2)c2ccc(F)cc2)CC1 [Ritanserin],scaled lipid accumulation score,[2],inactive: 0.133 and inactive: 0.043
Cc1oc(S(=O)(=O)N2CCCCC2)cc1NC(=O)Nc1ccccc1,scaled lipid accumulation score,[5],inactive: ≤ 0
C[C@H](CCC(=O)O)[C@H]1CC[C@H]2[C@@H]3C(=O)C[C@@H]4CC(=O)CC[C@]4(C)[C@H]3CC(=O)[C@]12C,scaled lipid accumulation score,[2],inactive: ≤ 0
C[C@H](CCC(=O)O)[C@H]1CC[C@H]2[C@@H]3C(=O)C[C@@H]4CC(=O)CC[C@]4(C)[C@H]3CC(=O)[C@]12C [Dehydrocholic acid],scaled lipid accumulation score,,inactive: ≤ 0
same,scaled lipid accumulation score,library stock concentration: 5 mM,inactive: ≤ 0
C[C@H](CCC(=O)O)[C@H]1CC[C@H]2[C@@H]3C(=O)C[C@@H]4CC(=O)CC[C@]4(C)[C@H]3CC(=O)[C@]12C [Sodium dehydrocholate],scaled lipid accumulation score,[6],inactive: ≤ 0
same,scaled lipid accumulation score,[2],inactive: ≤ 0
CCOC(=O)c1ccc(NC2CCCCC2)c(N)c1 [Ferrostatin-1 (Fer-1)],scaled lipid accumulation score,[1],inactive: 0.153
same,scaled lipid accumulation score,[2],inactive: 0.44
O=C1c2c(O)ccc(O)c2C(=O)c2c(NCCNCCO)ccc(NCCNCCO)c21 [Mitoxanthrone hydrochloride],scaled lipid accumulation score,[2],inactive: ≤ -0.027
O=C1c2c(O)ccc(O)c2C(=O)c2c(NCCNCCO)ccc(NCCNCCO)c21 [Mitoxantrone],scaled lipid accumulation score,[1],inactive: 0.297
same,scaled lipid accumulation score,[2],inactive: ≤ 0 and inactive: ≤ -0.055
O=C1c2c(O)ccc(O)c2C(=O)c2c(NCCNCCO)ccc(NCCNCCO)c21 [Mitoxantrone dihydrochloride],scaled lipid accumulation score,,inactive: ≤ 0
O=C1c2c(O)ccc(O)c2C(=O)c2c(NCCNCCO)ccc(NCCNCCO)c21 [Mitoxantrone HCl],scaled lipid accumulation score,[1],inactive: 0.377
same,scaled lipid accumulation score,[2],inactive: ≤ 0
O=C1c2c(O)ccc(O)c2C(=O)c2c(NCCNCCO)ccc(NCCNCCO)c21,scaled lipid accumulation score,[2],inactive: ≤ 0
O=C1c2c(O)ccc(O)c2C(=O)c2c(NCCNCCO)ccc(NCCNCCO)c21 [Mitoxantrone 2HCl],scaled lipid accumulation score,library stock concentration: 4.5 mM,inactive: ≤ 0
"CCN1CCCC1CNC(=O)c1cc(S(N)(=O)=O)ccc1OC (single isomer, unassigned; (-)) [Sulpiride]",scaled lipid accumulation score,,inactive: 0.022
same,scaled lipid accumulation score,library stock concentration: 5.9 mM,inactive: ≤ 0
"CCN1CCCC1CNC(=O)c1cc(S(N)(=O)=O)ccc1OC (single isomer, unassigned; (-)) [(-)-Sulpiride]",scaled lipid accumulation score,[2],inactive: ≤ 0
"CCN1CCCC1CNC(=O)c1cc(S(N)(=O)=O)ccc1OC (single isomer, unassigned; (-)) [(?)-Sulpiride]",scaled lipid accumulation score,[2],inactive: 0.072
O=C(O)CCC(=O)c1ccc(-c2ccccc2)cc1 [Fenbufen],scaled lipid accumulation score,,inactive: 0.047
same,scaled lipid accumulation score,library stock concentration: 7.9 mM,inactive: ≤ 0
same,scaled lipid accumulation score,[2],inactive: ≤ 0
CCS(=O)(=O)N(C)[C@H]1c2cc(C#N)ccc2OC(C)(C)[C@@H]1O (racemic) [Chromanol 293B],scaled lipid accumulation score,[2],inactive: ≤ 0
CN1CCCN(C(=O)c2cccc(-c3ccc(/C=C4/C(=O)Nc5ccc(Cl)cc54)o3)c2)CC1,scaled lipid accumulation score,[1],inactive: 0.657
same,scaled lipid accumulation score,[2],inactive: ≤ -0.001
CCCCCCCCOc1ccccc1C(=O)Nc1ccc(C(=O)OCC[N+](C)(CC)CC)cc1 [Otilonium Bromide],scaled lipid accumulation score,[1],inactive: ≤ 0
same,scaled lipid accumulation score,[2],inactive: ≤ 0
"N[C@@H](Cc1ccc(O)c(O)c1)C(=O)O [L-3,4-Dihydroxyphenylalanine]",scaled lipid accumulation score,[2],inactive: 0.017
N[C@@H](Cc1ccc(O)c(O)c1)C(=O)O [Levodopa],scaled lipid accumulation score,,inactive: ≤ 0
same,scaled lipid accumulation score,[2],inactive: ≤ -0.027
CCCCc1ncc(/C=C(\Cc2cccs2)C(=O)O)n1Cc1ccc(C(=O)O)cc1 [Eprosartan mesylate],scaled lipid accumulation score,[2],inactive: ≤ -0.055
CCCCc1ncc(/C=C(\Cc2cccs2)C(=O)O)n1Cc1ccc(C(=O)O)cc1 [Eprosartan Mesylate],scaled lipid accumulation score,[1],inactive: ≤ 0
same,scaled lipid accumulation score,[2],inactive: ≤ -0.001
CCCCc1ncc(/C=C(\Cc2cccs2)C(=O)O)n1Cc1ccc(C(=O)O)cc1 [Eprosartan],scaled lipid accumulation score,[6],inactive: 0.027
CC1(COc2ccc(CC3SC(=O)NC3=O)cc2)CCCCC1 (stereo not drawn) [Ciglitazone],scaled lipid accumulation score,[5],inactive: ≤ 0 and inactive: ≤ -0.021
same,scaled lipid accumulation score,[2],inactive: ≤ -0.006
CCc1ccc(OCc2ccccc2C(=O)Nc2ccc3nc(C)cc(N)c3c2)cc1,scaled lipid accumulation score,[1],inactive: 0.324
same,scaled lipid accumulation score,[2],inactive: 0.261 and inactive: ≤ -0.001
Cn1nc(C(C)(C)C)cc1C(=O)N[C@@H](Cc1cccc(Cl)c1)C(=O)NCC#N [Cathepsin Inhibitor 1],scaled lipid accumulation score,[1],inactive: ≤ 0
same,scaled lipid accumulation score,[2],inactive: ≤ 0
CN(C)CCc1c[nH]c2ccc(CS(=O)(=O)N3CCCC3)cc12 [Almotriptan Malate],scaled lipid accumulation score,[1],inactive: 0.022
same,scaled lipid accumulation score,[2],inactive: ≤ 0
CN(C)CCc1c[nH]c2ccc(CS(=O)(=O)N3CCCC3)cc12 [Almotriptan],scaled lipid accumulation score,[2],inactive: 0.075
CN(c1ncccc1CNc1nc(Nc2ccc3c(c2)CC(=O)N3)ncc1C(F)(F)F)S(C)(=O)=O,scaled lipid accumulation score,[3],inactive: ≤ 0
same,scaled lipid accumulation score,[4],inactive: ≤ 0 and inactive: ≤ -0.005
same,scaled lipid accumulation score,[7],inactive: ≤ 0 and inactive: ≤ -0.005
same,scaled lipid accumulation score,[1],inactive: ≤ 0 and inactive: 0.045 and inactive: ≤ -0.009
CC(C)SC(=N)N [S-Isopropylisothiourea hydrobromide],scaled lipid accumulation score,[2],inactive: ≤ 0
CC(C)SC(=N)N [S-isopropyl Isothiourea (hydrobromide)],scaled lipid accumulation score,[5],inactive: ≤ 0
O=C(Nc1ccccc1)N1CCN(c2nc(-c3ccccc3)ns2)CC1,scaled lipid accumulation score,[1],inactive: ≤ 0
same,scaled lipid accumulation score,[2],inactive: ≤ 0
CC(CNC(=O)c1cccnc1)NC(=O)c1cccnc1 (stereo not drawn) [Nicaraven],scaled lipid accumulation score,[1],inactive: ≤ 0
same,scaled lipid accumulation score,[2],inactive: ≤ -0.001
N[C@H](C(=O)O)c1ccc(C(=O)O)c(O)c1 [(S)-4-Carboxy-3-hydroxyphenylglycine],scaled lipid accumulation score,[2],inactive: ≤ 0
Cc1cnc(NC(=O)Nc2cc(Br)c(C)cc2OC[C@@H]2CNCCO2)cn1,scaled lipid accumulation score,[3],inactive: ≤ 0
same,scaled lipid accumulation score,[4],inactive: 0.041
same,scaled lipid accumulation score,[7],inactive: 0.321
same,scaled lipid accumulation score,[1],inactive: 0.754
same,scaled lipid accumulation score,[2],inactive: 0.543 and inactive: 0.824
CCCCC[C@@H](O)/C=C/[C@H]1[C@H](C/C=C\CCCC(=O)O)[C@H](O)C[C@@H]1O [ent-Prostaglandin F2.alpha.],scaled lipid accumulation score,[5],inactive: ≤ 0
O=C(O)c1cc(=O)c2ccccc2[nH]1 [Kynurenic acid],scaled lipid accumulation score,[2],inactive: 0.025 and inactive: ≤ -0.055 and inactive: ≤ 0
Nc1cc(C(F)(F)F)c(-c2cc(N3CCOCC3)nc(N3CCOCC3)n2)cn1,scaled lipid accumulation score,[3],inactive: ≤ -0.009
same,scaled lipid accumulation score,[4],inactive: 0.033
same,scaled lipid accumulation score,[7],inactive: 0.091
same,scaled lipid accumulation score,[2],inactive: 0.096
"Nc1cc(C(F)(F)F)c(-c2cc(N3CCOCC3)nc(N3CCOCC3)n2)cn1 [BKM120 (NVP-BKM120, Buparlisib)]",scaled lipid accumulation score,[1],inactive: ≤ 0
same,scaled lipid accumulation score,[2],inactive: ≤ 0
"Cc1c(C(=O)Nc2ccc(N3C[C@@H](C)O[C@@H](C)C3)nc2)cccc1-c1ccc(OC(F)(F)F)cc1 [LDE225 (NVP-LDE225,Erismodegib)]",scaled lipid accumulation score,[1],inactive: 0.049
same,scaled lipid accumulation score,[2],inactive: 0.703
CNCCCN1c2ccccc2CCc2ccccc21.Cl [Desipramine hydrochloride],scaled lipid accumulation score,[2],active: 1.15
CSCC[C@H](NC(=O)[C@H](Cc1c[nH]c2ccccc12)NC(=O)CCNC(=O)OC(C)(C)C)C(=O)N[C@@H](CC(=O)O)C(=O)N[C@@H](Cc1ccccc1)C(N)=O,scaled lipid accumulation score,[2],inactive: ≤ 0
CC(C)NNC(=O)c1ccncc1 [Iproniazid sulfate],scaled lipid accumulation score,[2],inactive: ≤ 0
CC(C)NNC(=O)c1ccncc1 [Iproniazid phosphate],scaled lipid accumulation score,[2],inactive: ≤ -0.055
CC(C)NNC(=O)c1ccncc1 [Iproniazide phosphate],scaled lipid accumulation score,,inactive: 0.076
O=C1c2cccc(O)c2C(=O)c2c(O)cccc21 [Danthron],scaled lipid accumulation score,library stock concentration: 8.3 mM,inactive: 0.038
COc1cccc(-c2cc(F)ccc2C2Cc3nc(N)nc(C)c3C(=O)N2)n1 (stereo not drawn),scaled lipid accumulation score,[1],inactive: 0.806
CCOC(N)=O [Urethane],scaled lipid accumulation score,[2],inactive: 0.012
same,scaled lipid accumulation score,library stock concentration: 22.4 mM,inactive: ≤ 0
CCc1ccc(/C=C2/SC(=S)NC2=O)cc1,scaled lipid accumulation score,[1],inactive: ≤ -0.009
same,scaled lipid accumulation score,[2],inactive: 0.069 and inactive: 0.032
CC(=Nc1ccccc1N)c1c(C)cc(=O)n(O)c1O,scaled lipid accumulation score,[2],inactive: ≤ 0
CC1(COc2ccc3c(c2)ncn3-c2ccc3cccc(N4CCC(N)CC4)c3n2)COC1,scaled lipid accumulation score,[1],active: 0.869
CCN(CC)CCNC(=O)c1cc(Br)c(N)cc1OC [Bromopride],scaled lipid accumulation score,,inactive: ≤ 0
same,scaled lipid accumulation score,[2],inactive: ≤ -0.027
CCCCC(=O)N(Cc1ccc(-c2ccccc2-c2nnn[nH]2)cc1)[C@H](C(=O)O)C(C)C [Valsartan],scaled lipid accumulation score,[1],inactive: ≤ 0
same,scaled lipid accumulation score,[2],inactive: ≤ 0 and inactive: ≤ -0.027
CCCCC(=O)N(Cc1ccc(-c2ccccc2-c2nnn[nH]2)cc1)[C@H](C(=O)O)C(C)C,scaled lipid accumulation score,[2],inactive: ≤ 0
